Reference: the antibiotic and cytotoxicity screens of Wong et al. (2023)
Some of the results follow.

Legend:
HSkMC = human skeletal muscle cells; experiment: cytotoxicity call (relative viability < 0.9); conditions: 10 µM
HepG2 = experiment: cytotoxicity call (relative viability < 0.9); conditions: 10 µM
S. aureus RN4220 = experiment: growth inhibition call (relative growth <= 0.2); conditions: 50 µM

| SMILES | cytotoxicity call (HSkMC) | cytotoxicity call (HepG2) | growth inhibition call (S. aureus RN4220) |
| --- | --- | --- | --- |
| COc1ccccc1S(=O)(=O)N(C)C[C@H]1OCc2cn(nn2)CCCC(=O)N([C@H](C)CO)C[C@@H]1C | inactive | inactive | inactive |
| Cc1ccc(S(=O)(=O)Nc2ccc3c(c2)C(=O)N([C@H](C)CO)C[C@H](C)[C@H](CN(C)CC2CCCCC2)OCCCC[C@H](C)O3)cc1 | active | active | inactive |
| CN(C)Cc1cn(CC[C@@H]2CC[C@@H](NS(=O)(=O)c3ccccc3)[C@@H](CO)O2)nn1 | inactive | inactive | inactive |
| CCOc1ccc(Cc2nccc3cc(OCC)c(OCC)cc23)cc1OCC.Cl | inactive | active | inactive |
| C[C@@H]1CCCCO[C@H](CN(C)C(=O)Nc2ccccc2)[C@@H](C)CN([C@H](C)CO)C(=O)c2cc(NC(=O)NC3CCCCC3)ccc2O1 | inactive | inactive | inactive |
| Cc1ccccc1S(=O)(=O)N1C[C@@H](O)COC[C@H]2O[C@@H](CC(=O)N3CCOCC3)CC[C@@H]21 | inactive | inactive | inactive |
| C[C@H]1CN([C@@H](C)CO)C(=O)c2cccc(NC(=O)CCCCCC(=O)Nc3ccccc3N)c2O[C@H]1CN(C)C(=O)Nc1ccc(F)cc1 | inactive | inactive | inactive |
| C[C@H]1CN([C@@H](C)CO)C(=O)c2cc(NC(=O)Nc3cccc4ccccc34)ccc2O[C@@H]1CN(C)Cc1ccc(C(=O)O)cc1 | inactive | inactive | inactive |
| COc1ccccc1S(=O)(=O)N[C@H]1C=C[C@@H](CC(=O)N2CCN(C)CC2)O[C@@H]1CO | inactive | inactive | inactive |
| C[C@H](CO)N1C[C@H](C)[C@@H](CN(C)S(C)(=O)=O)Oc2cc(-c3ccc(F)cc3)ccc2S1(=O)=O | inactive | inactive | inactive |
| NCC[C@H]1CC[C@H](NC(=O)Nc2ccc(F)cc2)[C@@H](CO)O1 | inactive | inactive | inactive |
| C[C@H](CO)N1C[C@H](C)[C@@H](CN(C)C(=O)Cc2ccccc2)Oc2cc(C#CC3(O)CCCC3)ccc2S1(=O)=O | inactive | inactive | inactive |
| COCCc1nc2c([nH]1)c(=O)n(C)c(=O)n2C | inactive | inactive | inactive |
| COc1cc(C(=O)NC2CCN(C)CC2)ccc1Nc1ncc2c(n1)N(C1CCC(O)CC1)CCC(=O)N2C (centres undefined) | inactive | inactive | inactive |
| C[C@@H]1CN([C@H](C)CO)C(=O)c2cc(NC(=O)NC3CCCCC3)ccc2O[C@@H]1CN(C)S(=O)(=O)c1cn(C)cn1 | inactive | inactive | inactive |
| Cc1ccc(S(=O)(=O)Nc2ccc3c(c2)C(=O)N([C@@H](C)CO)C[C@H](C)[C@H](CN(C)C(=O)CCC(F)(F)F)OCCCC[C@@H](C)O3)cc1 | inactive | inactive | inactive |
| C=CCOC(=O)[C@@H]1[C@H]2C(=O)O[C@H](c3ccccc3)[C@H](c3ccccc3)N2[C@H](c2ccc(OCCOC(=O)[C@H]3C[C@H]4C(=O)N[C@@H](CCCCN(C)C)C(=O)N4[C@H]3c3cccc(OCCO)c3)cc2)[C@@]12C(=O)Nc1ccccc12 | inactive | inactive | inactive |
| C[C@@H]1CCCCO[C@@H](CN(C)C(=O)Nc2ccc(F)cc2)[C@@H](C)CN([C@H](C)CO)C(=O)c2cc(NC(=O)CCC(F)(F)F)ccc2O1 | inactive | inactive | inactive |
| Cc1noc(C)c1NC(=O)Nc1cccc2c1O[C@@H](CN(C)Cc1ccc(Oc3ccccc3)cc1)[C@@H](C)CN([C@@H](C)CO)C2=O | inactive | inactive | inactive |
| COC(=O)C1=C2CC[C@@H](COC(=O)NCCCCCC(=O)NO)NC(=O)N[C@H](Cc3ccccc3)c3cn(nn3)C[C@H](Cc3ccccc3)NC(=O)c3oc(c(C(=O)OC)c3C(=O)OC)CC[C@@H](COC(=O)NCCCCCC(=O)NO)NC(=O)N[C@H](Cc3ccccc3)c3cn(nn3)C[C@H](Cc3ccccc3)NC(=O)C(=C1C(=O)OC)O2 | inactive | inactive | inactive |
| Cc1noc(C)c1NC(=O)N(C)C[C@@H]1OCCCC[C@H](C)Oc2ccc(NC(=O)Nc3ccc(C(F)(F)F)cc3)cc2C(=O)N([C@@H](C)CO)C[C@H]1C | inactive | inactive | inactive |
| Nc1ccc(Nc2ccccc2)cc1 | inactive | inactive | inactive |
| C[C@@H]1CCCCO[C@@H](CN(C)C(=O)NC2CCCCC2)[C@@H](C)CN([C@@H](C)CO)C(=O)c2cc(NC(=O)Nc3cccc4ccccc34)ccc2O1 | inactive | inactive | inactive |
